# Inconclusive means that the source gave no clear call. Such entries were picked first, then a sample of the others. For some assays here: A potency beside an inconclusive call is a rough fit, not a confirmed value. The source made the active and inactive calls. Unless noted, calls follow the shape of the dose curve; as a rule, active = well fitted curve in the direction sought with a large enough effect in the repeat runs; inconclusive = weak or mixed curves; inactive = no such curve, though single readings can be large; an effect the other way counts as inactive or inconclusive.
# Key:
# [1] = qHTS assay for small molecule agonists of the p53 signaling pathway (AID 651631; calls by dose curve; also: potency is read from the fitted curve at half-maximal effect; nearly all actives have a fitted effect of over 15% in size); settings: HCT-116 p53RE-bla reporter, beta-lactamase FRET ratio, 16 h; activation: at 73.3 µM (top of the series) unless noted
# How it was run: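 Testing took place in human colorectal HCT-116 cells with stable p53RE-driven beta-lactamase. After 16 h of compound exposure at 37 °C, a FRET substrate was added and fluorescence recorded 2 h later.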
# [2] = qHTS assay for small molecule disruptors of the mitochondrial membrane potential - cell viability (AID 720634; calls by dose curve; also: nearly all actives have a fitted effect of over 20% in size; also: potency is read from the fitted curve at half-maximal effect;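 as to activity change, negative = cytotoxicity: human HepG2 liver cancer cells; % is scaled to controls: 0 for no effect and ±100 for the full control effect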)
# How it was run: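 After overnight attachment at 37 C, HepG2 cells received compound or DMSO vehicle for 1 hr. Viability is then taken from ATP-driven luminescence following a 30 min room-temperature CellTiter-Glo step.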
# [3] = qHTS assay for small molecule disruptors of the mitochondrial membrane potential (AID 720635); settings: HepG2 mitochondrial membrane potential, Mito-MPS dye ratio; ratio activity, negative = MMP loss: at 83.2 µM (top of the series) unless noted; also: potency is read from the fitted curve at half-maximal effect
# How it was run: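 HepG2 cells (2,000/well) attached overnight at 37C, then took compound for 1 hr at 37C, 5% CO2. Mito-MPS dye was added for 30 min; fluorescence was read at 490/535 nm (monomers) and 540/590 nm (aggregates).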
# [4] = biological target: Glucocorticoid receptor (Homo sapiens) (UniProt P04150); test: qHTS assay to identify small molecule agonists of the glucocorticoid receptor (GR) signaling pathway (AID 720691; active = well fitted activation curve with a large enough effect in the signal ratio in the repeat runs, not every such curve was filed as active; inconclusive = weak or mixed curves, or effect the other way; inactive = no such curve, though single readings can be large or run the other way; the % refers to the signal ratio; also: potency is read from the fitted curve at half-maximal effect); settings: GR-bla HeLa, beta-lactamase reporter ratio, 18 h; activation: at 62.4 µM (top of the series) unless noted
# Sequence of UniProt P04150 (P04150 whole entry, looked up): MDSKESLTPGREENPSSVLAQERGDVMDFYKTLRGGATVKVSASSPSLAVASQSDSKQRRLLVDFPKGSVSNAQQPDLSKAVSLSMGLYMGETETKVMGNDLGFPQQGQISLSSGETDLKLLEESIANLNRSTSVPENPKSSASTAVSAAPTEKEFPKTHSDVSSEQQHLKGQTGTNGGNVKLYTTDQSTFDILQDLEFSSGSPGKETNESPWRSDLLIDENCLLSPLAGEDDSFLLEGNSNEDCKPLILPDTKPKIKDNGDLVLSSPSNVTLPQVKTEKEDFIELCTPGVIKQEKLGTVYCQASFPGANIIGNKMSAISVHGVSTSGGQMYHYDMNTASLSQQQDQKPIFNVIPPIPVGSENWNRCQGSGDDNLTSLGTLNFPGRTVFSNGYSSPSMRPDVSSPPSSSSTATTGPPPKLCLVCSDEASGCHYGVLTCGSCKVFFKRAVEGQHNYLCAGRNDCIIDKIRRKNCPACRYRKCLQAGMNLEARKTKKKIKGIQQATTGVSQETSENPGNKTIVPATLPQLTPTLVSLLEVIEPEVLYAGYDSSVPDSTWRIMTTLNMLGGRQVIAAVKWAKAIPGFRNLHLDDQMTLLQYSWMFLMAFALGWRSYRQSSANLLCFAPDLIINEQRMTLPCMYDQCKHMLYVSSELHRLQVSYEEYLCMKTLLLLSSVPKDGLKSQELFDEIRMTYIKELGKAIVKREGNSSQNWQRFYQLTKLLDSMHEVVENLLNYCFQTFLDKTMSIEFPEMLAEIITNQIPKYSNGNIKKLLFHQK
# How it was run: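 Agonist mode in a HeLa line carrying a GRE-controlled beta-lactamase reporter. Compounds act for 18 h at 37 C before a 2 h room-temperature FRET substrate step and fluorescence reading.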
# [5] = biological target: Glucocorticoid receptor (Homo sapiens) (UniProt P04150); test: qHTS assay to identify small molecule antagonists of the glucocorticoid receptor (GR) signaling pathway (AID 720692; active = well fitted inhibition curve with a large enough effect in the signal ratio in the repeat runs, not every such curve was filed as active; inconclusive = weak or mixed curves, or effect the other way; inactive = no such curve, though single readings can be large or run the other way; the % refers to the signal ratio; also: potency is read from the fitted curve at half-maximal effect); settings: GR-bla HeLa, beta-lactamase FRET ratio, dexamethasone-stimulated, 18 h; activity change, negative = inhibition: at 58.5 µM (top of the series) unless noted
# How it was run: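 Cells plated, rested 4 h at 37 C/5% CO2; compounds in DMSO pin-transferred; dexamethasone added to 5 nM final; 18 h at 37 C; B/G FRET substrate added, 2 h room temperature; fluorescence measured.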
# [6] = biological target: Androgen receptor (Homo sapiens) (UniProt P10275); test: qHTS assay to identify small molecule antagonists of the androgen receptor (AR) signaling pathway (AID 743035; active = well fitted inhibition curve with a large enough effect in the signal ratio in the repeat runs, not every such curve was filed as active; inconclusive = weak or mixed curves, or effect the other way; inactive = no such curve, though single readings can be large or run the other way; the % refers to the signal ratio; also: potency is read from the fitted curve at half-maximal effect); settings: HEK293 AR-UAS-bla, R1881-stimulated, beta-lactamase FRET, 16 h; activity change, negative = inhibition: at 58.5 µM (top of the series) unless noted
# Sequence of UniProt P10275 (P10275 whole entry, looked up): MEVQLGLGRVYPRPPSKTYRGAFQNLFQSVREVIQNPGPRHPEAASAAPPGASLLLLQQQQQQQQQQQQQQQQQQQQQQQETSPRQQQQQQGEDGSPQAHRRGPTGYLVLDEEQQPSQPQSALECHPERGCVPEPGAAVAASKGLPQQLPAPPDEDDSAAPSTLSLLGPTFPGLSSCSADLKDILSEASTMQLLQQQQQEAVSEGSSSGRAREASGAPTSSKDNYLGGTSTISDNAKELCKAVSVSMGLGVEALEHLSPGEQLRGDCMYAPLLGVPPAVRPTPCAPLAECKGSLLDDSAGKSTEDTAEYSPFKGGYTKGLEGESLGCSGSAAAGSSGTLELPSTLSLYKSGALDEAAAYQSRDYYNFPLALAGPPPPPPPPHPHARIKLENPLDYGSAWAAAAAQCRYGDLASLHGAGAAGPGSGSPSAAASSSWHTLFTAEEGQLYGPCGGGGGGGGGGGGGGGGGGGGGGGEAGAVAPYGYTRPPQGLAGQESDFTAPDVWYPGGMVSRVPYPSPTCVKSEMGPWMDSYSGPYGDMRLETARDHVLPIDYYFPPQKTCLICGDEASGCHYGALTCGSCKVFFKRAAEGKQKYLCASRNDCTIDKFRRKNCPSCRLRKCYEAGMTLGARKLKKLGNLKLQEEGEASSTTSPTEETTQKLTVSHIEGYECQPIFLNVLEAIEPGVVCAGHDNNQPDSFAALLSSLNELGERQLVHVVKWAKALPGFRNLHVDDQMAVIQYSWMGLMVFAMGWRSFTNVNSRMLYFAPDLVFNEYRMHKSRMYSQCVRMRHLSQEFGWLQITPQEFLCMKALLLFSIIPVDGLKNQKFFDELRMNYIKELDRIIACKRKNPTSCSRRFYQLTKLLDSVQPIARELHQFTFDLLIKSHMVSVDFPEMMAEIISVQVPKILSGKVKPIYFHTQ
# How it was run: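 Antagonism is scored as loss of R1881-driven beta-lactamase reporter expression in HEK293 cells carrying the reporter under a UAS element, after 16 h co-treatment at 37C and a 2 h room-temperature FRET substrate read.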
# [7] = qHTS assay to identify small molecule antagonists of the thyroid receptor (TR) signaling pathway - cell viability counter screen (AID 743064); settings: GH3.TRE-Luc viability, CellTiter-Fluor, 24 h; activity change, negative = cytotoxic: at 70.3 µM (top of the series) unless noted; also: potency is read from the fitted curve at half-maximal effect; nearly all actives have a fitted effect of over 50% in size
# How it was run: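 Viability of T3-stimulated (1 nM final) GH3.TRE-Luc cells is measured by CellTiter-Fluor fluorescence after 23.5 h compound exposure at 37 °C plus 30 min reagent incubation.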
# [8] = qHTS assay to identify small molecule antagonists of the thyroid receptor (TR) signaling pathway (AID 743065); also: potency is read from the fitted curve at half-maximal effect; nearly all actives have a fitted effect of over 55% in size
# How it was run: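 GH3.TRE-Luc rat pituitary cells carrying two TR response elements driving luciferase were plated for 4 h, given compound plus 1 nM T3 (final), and incubated 23.5 h at 37 C. ONE-Glo luminescence measured reporter inhibition; CellTiter-Fluor fluorescence tracked cytotoxicity.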
# [9] = test system: thyroid hormone receptor (rat, GH3 cells); test: qHTS assay to identify small molecule agonists of the thyroid receptor (TR) signaling pathway (AID 743066; calls by dose curve; also: % is scaled to controls: 0 for no effect and ±100 for the full control effect); settings: GH3.TRE-Luc cells, TR agonist luciferase, 24 h; activation: at 83.9 µM (top of the series) unless noted
# [10] = biological target: Estrogen receptor (Homo sapiens) (UniProt P03372); test: qHTS assay to identify small molecule antagonists of the estrogen receptor alpha (ER-alpha) signaling pathway (AID 743069; active = well fitted curve in the direction sought with a large enough effect in the signal ratio in the repeat runs, not every such curve was filed as active; inconclusive = weak or mixed curves, or effect the other way; inactive = no such curve, though single readings can be large or run the other way; the % refers to the signal ratio; also: potency is read from the fitted curve at half-maximal effect); settings: HEK293 ER-alpha-UAS-bla, beta-lactamase ratio, antagonist mode; activity, negative = inhibition: at 69.4 µM (top of the series) unless noted
# Sequence of UniProt P03372 (P03372 whole entry, looked up): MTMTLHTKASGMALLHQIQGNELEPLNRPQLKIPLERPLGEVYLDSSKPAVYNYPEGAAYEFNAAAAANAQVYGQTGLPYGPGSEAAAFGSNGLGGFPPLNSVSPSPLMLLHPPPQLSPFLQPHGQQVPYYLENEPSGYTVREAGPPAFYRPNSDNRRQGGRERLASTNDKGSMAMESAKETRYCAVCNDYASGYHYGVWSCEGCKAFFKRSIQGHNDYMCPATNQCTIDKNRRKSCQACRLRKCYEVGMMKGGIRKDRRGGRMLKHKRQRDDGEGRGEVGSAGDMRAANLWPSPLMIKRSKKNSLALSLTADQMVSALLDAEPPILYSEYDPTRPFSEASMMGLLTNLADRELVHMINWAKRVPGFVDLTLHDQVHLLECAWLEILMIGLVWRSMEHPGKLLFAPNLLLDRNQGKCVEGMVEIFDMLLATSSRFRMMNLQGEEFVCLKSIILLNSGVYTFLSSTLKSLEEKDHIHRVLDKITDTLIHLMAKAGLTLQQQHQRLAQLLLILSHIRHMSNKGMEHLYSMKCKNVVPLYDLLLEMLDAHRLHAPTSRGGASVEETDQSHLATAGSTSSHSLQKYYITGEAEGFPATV
# How it was run: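 HEK293 cells stably carrying an ER-alpha-UAS-bla beta-lactamase reporter were pre-cultured overnight in 2% charcoal-stripped FBS medium. Test compounds in DMSO were added together with 17beta-estradiol for 18 hr at 37C. Read-out was fluorescence after 2 hr with LiveBLAzer B/G FRET substrate at room temperature.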
# [11] = qHTS assay to identify small molecule antagonists of the estrogen receptor alpha (ER-alpha) signaling pathway - cell viability counter screen (AID 743074; calls by dose curve; also: potency is read from the fitted curve at half-maximal effect; nearly all actives have a fitted effect of over 45% in size)
# [12] = biological target: Estrogen receptor (Homo sapiens) (UniProt P03372); test: qHTS assay to identify small molecule agonists of the estrogen receptor alpha (ER-alpha) signaling pathway (AID 743075; calls by dose curve; also: potency is read from the fitted curve at half-maximal effect); settings: HEK293 ER-alpha-UAS-bla, beta-lactamase FRET ratio, 18 h; activation: at 70.1 µM (top of the series)
# [13] = biological target: Estrogen receptor (Homo sapiens) (UniProt P03372); test: qHTS assay to identify small molecule agonists of the estrogen receptor alpha (ER-alpha) signaling pathway using the BG1 cell line (AID 743079); settings: BG1Luc4E2 cells, ERE-luciferase agonist, 22 h; activation: at 70.3 µM (top of the series) unless noted; also: nearly all actives have a fitted effect of over 20% in size; also: potency is read from the fitted curve at half-maximal effect; as to activation: % is scaled to controls: 0 for no effect and ±100 for the full control effect
# [14] = qHTS assay to identify small molecule antagonists of the estrogen receptor alpha (ER-alpha) signaling pathway using the BG1 cell line (AID 743080; calls by dose curve;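 also: BG1 cells stimulated with 17beta-estradiol alongside compound; potency is read from the fitted curve at half-maximal effect; nearly all actives have a fitted effect of over 25% in size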); settings: BG1Luc4E2 ERE-luciferase antagonist mode, luminescence; activity change, negative = inhibition: at 70.3 µM (top of the series) unless noted
# How it was run: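 Luciferase inhibition measured with ONE-Glo after 30 min at RT in BG1Luc4E2 cells given test compounds and 17beta-estradiol for 21.5 h at 37 C; CellTiter-Fluor viability read in the same wells beforehand.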
# [15] = qHTS assay to identify small molecule antagonists of the estrogen receptor alpha (ER-alpha) signaling pathway using the BG1 cell line - cell viability counter screen (AID 743081); settings: BG1Luc4E2 viability, CellTiter-Fluor, 22 h; activity change, negative = cytotoxicity: at 70.3 µM (top of the series) unless noted;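 also: compound given together with 17beta-estradiol as the ER stimulus; nearly all actives have a fitted effect of over 45% in size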; also: potency is read from the fitted curve at half-maximal effect; as to activity change, negative = cytotoxicity: % is scaled to controls: 0 for no effect and ±100 for the full control effect
# [16] = qHTS assay to identify aromatase inhibitors - cell viability counter screen (AID 743084); settings: MCF-7 aro ERE viability, CellTiter-Fluor, 24 h; activity change, negative = cytotoxicity: at 70.3 µM (top of the series) unless noted;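 also: cells stimulated with testosterone during compound exposure; potency is read from the fitted curve at half-maximal effect; nearly all actives have a fitted effect of over 55% in size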
# [17] = biological target: Peroxisome proliferator-activated receptor gamma (Homo sapiens) (UniProt P37231); test: qHTS assay to identify small molecule agonists of the peroxisome proliferator-activated receptor gamma (PPARg) signaling pathway (AID 743094; active = well fitted activation curve with a large enough effect in the signal ratio in the repeat runs, not every such curve was filed as active; inconclusive = weak or mixed curves, or effect the other way; inactive = no such curve, though single readings can be large or run the other way; the % refers to the signal ratio; also: potency is read from the fitted curve at half-maximal effect); settings: HEK293H PPARg-UAS-bla, beta-lactamase FRET ratio, 17 h; activation: at 57 µM (top of the series) unless noted
# Sequence of UniProt P37231 (P37231 whole entry, looked up): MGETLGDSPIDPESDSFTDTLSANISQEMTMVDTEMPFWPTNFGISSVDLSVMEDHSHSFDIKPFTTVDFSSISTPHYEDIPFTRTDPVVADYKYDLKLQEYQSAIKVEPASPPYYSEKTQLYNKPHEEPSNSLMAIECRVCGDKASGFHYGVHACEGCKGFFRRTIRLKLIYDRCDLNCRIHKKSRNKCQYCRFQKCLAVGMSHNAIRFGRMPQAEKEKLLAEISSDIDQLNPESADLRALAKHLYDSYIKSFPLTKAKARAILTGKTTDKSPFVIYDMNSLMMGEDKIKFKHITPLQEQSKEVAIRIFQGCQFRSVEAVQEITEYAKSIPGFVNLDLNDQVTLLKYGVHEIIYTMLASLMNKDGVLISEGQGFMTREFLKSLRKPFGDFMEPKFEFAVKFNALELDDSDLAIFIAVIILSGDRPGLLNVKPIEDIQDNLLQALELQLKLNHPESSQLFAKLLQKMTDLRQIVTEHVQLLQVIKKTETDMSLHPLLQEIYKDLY
# How it was run: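 Quantitative HTS agonist mode: stable HEK293H line with UAS-beta-lactamase reporter under PPARg control, 17 h compound exposure at 37C, fluorescence after 1 h FRET substrate loading at room temperature.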
# [18] = biological target: Nuclear receptor subfamily 1 group I member 2 (Homo sapiens) (UniProt O75469); test: CYP3A4 induction through human pregnane X receptor (PXR) by small molecules, qHTS assay (AID 1346984); settings: DPX-2 HepG2 PXR, CYP3A4-luciferin luminescence, 24 h; activation: at 46.1 µM (top of the series) unless noted; also: potency is read from the fitted curve at half-maximal effect; nearly all actives have a fitted effect of over 40% in size
# How it was run: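 Steps: seed DPX-2 cells, 5 hr at 37C; pin-transfer compounds; 24 hr at 37C; add Luciferin-IPA (3uM final), 3 hr at 37C; add One-Glo, 30 min RT; read luminescence.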
# [19] = biological target: Nuclear receptor subfamily 1 group I member 2 (Homo sapiens) (UniProt O75469); test: Human pregnane X receptor (PXR) activation by small molecules, qHTS assay (AID 1346985); also: potency is read from the fitted curve at half-maximal effect; nearly all actives have a fitted effect of over 40% in size
# How it was run: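 DPX-2 cells (HepG2 co-transfected with a PXR response element and a CYP3A4-promoter luciferase construct) were seeded at 2,000 per well, rested 5 hr at 37C, then exposed to DMSO-dissolved compounds for 24 hr. Activation was read as luciferase luminescence.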
# [20] = qHTS assay for small molecules that induce genotoxicity in human embryonic kidney cells expressing luciferase-tagged ATAD5 (AID 651632); also: potency is read from the fitted curve at half-maximal effect; nearly all actives have a fitted effect of over 15% in size
# How it was run: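 Increased luciferase signal from ATAD5-tagged reporter cells indicates DNA-damage-driven ATAD5 induction. HEK293T cells are treated for 16 hr at 37C before detection with Amplite.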
# [21] = qHTS assay for identifying genotoxic compounds that show differential cytotoxicity against isogenic chicken DT40 cell lines with known DNA damage response pathways - Rev3 mutant cell line (AID 743014); settings: chicken DT40 Rev3-/- viability, CellTiter-Glo, 40 h; activity, negative = cytotoxicity: at 68.4 µM (top of the series) unless noted; also: % is scaled to controls: 0 for no effect and ±100 for the full control effect; nearly all actives have a fitted effect of over 55% in size
# [22] = qHTS assay for identifying genotoxic compounds that show differential cytotoxicity against isogenic chicken DT40 cell lines with known DNA damage response pathways - Rad54/Ku70 mutant cell line (AID 743015); settings: DT40 Rad54/Ku70 mutant viability, CellTiter-Glo, 40 h; activity change, negative = cytotoxicity: at 66.8 µM (top of the series) unless noted; also: % is scaled to controls: 0 for no effect and ±100 for the full control effect; nearly all actives have a fitted effect of over 60% in size
# [23] = biological target: Androgen receptor (Homo sapiens) (UniProt P10275); test: qHTS assay to identify small molecule agonists of the androgen receptor (AR) signaling pathway (AID 743036; active = well fitted activation curve with a large enough effect in the signal ratio in the repeat runs, with a control signal flat, not every such curve was filed as active; inconclusive = weak or mixed curves, or effect the other way; inactive = no such curve, though single readings can be large or run the other way; the % refers to the signal ratio; also: potency is read from the fitted curve at half-maximal effect); settings: HEK293 AR-UAS-bla GripTite, beta-lactamase FRET ratio, 16 h; activation: at 62.4 µM (top of the series) unless noted
# How it was run: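 Screening used 2,000 AR-bla HEK293 cells per well, treated 16 h at 37C with test compounds in DMSO alongside positive and DMSO-only controls; beta-lactamase activity was then read by LiveBLAzer B/G FRET fluorescence after 2 h at room temperature.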
# [24] = qHTS assay to identify small molecule that activate the aryl hydrocarbon receptor (AhR) signaling pathway - cell viability counter screen (AID 743086); also: potency is read from the fitted curve at half-maximal effect; nearly all actives have a fitted effect of over 45% in size
# How it was run: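 HepG2-AhR-luc (HG2L7.5c1) cells, 4000/well, were preincubated 5 h at 37C, exposed to compound in qHTS format for 24 hr at 37C, then given CellTiter-Fluor for 30 min; viability was read as fluorescence in the reporter wells.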
# [25] = biological target: Nuclear receptor subfamily 1 group I member 2 (Rattus norvegicus) (UniProt Q9R1A7); test: Rat pregnane X receptor (rPXR) activation by small molecules, qHTS assay (AID 1346983); settings: rPXR luciferase reporter cells, One-Glo luminescence, 24 h; max activation: hits give high values; also: potency is read from the fitted curve at half-maximal effect; nearly all actives have a fitted effect of over 20% in size
# Sequence of UniProt Q9R1A7 (Q9R1A7 whole entry, looked up): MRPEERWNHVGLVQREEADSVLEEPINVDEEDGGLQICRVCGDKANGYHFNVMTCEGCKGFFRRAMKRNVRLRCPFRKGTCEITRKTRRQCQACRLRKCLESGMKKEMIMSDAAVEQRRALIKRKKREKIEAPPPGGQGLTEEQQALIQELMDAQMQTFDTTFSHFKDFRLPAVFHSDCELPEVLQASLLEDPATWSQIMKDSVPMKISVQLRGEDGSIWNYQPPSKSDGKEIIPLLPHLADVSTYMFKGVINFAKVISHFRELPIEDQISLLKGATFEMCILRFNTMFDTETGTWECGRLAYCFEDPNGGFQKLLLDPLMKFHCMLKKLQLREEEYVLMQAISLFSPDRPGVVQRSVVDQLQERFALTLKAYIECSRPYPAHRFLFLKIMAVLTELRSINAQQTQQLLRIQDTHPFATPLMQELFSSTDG
# How it was run: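 Cell-based rPXR luciferase reporter assay, 2,000 cells per well, rested 5hr at 37 C before compound addition in DMSO, then 24 hr at 37 C. One-Glo reagent was added and luminescence read after 30 min at room temperature.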
# Tags tell the direction and shape of the fitted curve or compound fluorescence and quenching.
compound,measurement,setting,value
CCCCCCOc1ccc(C(=N)N(CCCC)CCCC)c2ccccc12,Potency,[1],"inconclusive: 26.6 µM [cytotoxic, partial curve]"
same,Potency,[2],active: 26.6 µM
same,Potency,[3],active: 8.41 µM
same,Potency,[4],"inconclusive: 13.4 µM [cytotoxic, full curve]"
same,Potency,[5],"inconclusive: 13.4 µM [cytotoxic, full curve]"
same,Potency,[6],"inconclusive: 26.8 µM [falling, single point]"
same,Potency,[7],active: 5.31 µM
same,Potency,[8],active: 5.31 µM
same,activation,[9],inconclusive: -8.14% [phenotype inactive]
same,Potency,[10],"inconclusive: 26.8 µM [cytotoxic, single point]"
same,Potency,[11],active: 9.52 µM
same,Potency,[12],"inconclusive: 26.8 µM [cytotoxic, single point]"
same,Potency,[13],"inconclusive: 16.8 µM [inhibitor, partial curve]"
same,Potency,[14],"inconclusive: 23.7 µM [falling, partial curve]"
same,Potency,[15],active: 33.5 µM
same,Potency,[16],active: 16.8 µM
same,Potency,[17],inconclusive: 26.8 µM [cytotoxic]
same,Potency,[18],"inconclusive: 11.2 µM [activator, partial curve]"
same,Potency,[19],"inconclusive: 11.2 µM [activator, single point]"
Cc1cccc(C)c1Nc1ncccc1C(=O)O,Potency,[1],inconclusive: 33.5 µM [activator]
same,Potency,[20],"inconclusive: 13.3 µM [activator, full curve, poor fit]"
same,Potency,[2],inactive
same,Potency,[21],inactive
same,Potency,[22],inactive
same,Potency,[23],"inconclusive: 0.425 µM [rising, full curve, poor fit]"
same,Potency,[8],"inconclusive: 26.6 µM [inhibitor, partial curve]"
same,activation,[13],inconclusive: 10.2% [phenotype inactive]
same,Potency,[14],inconclusive: 10.6 µM
same,Potency,[15],inactive
same,Potency,[24],"inconclusive: 13.3 µM [rising, partial curve, poor fit]"
same,Potency,[25],"inconclusive: 20 µM [activator, partial curve]"
same,Potency,[19],"inconclusive: 6.31 µM [activator, partial curve]"

# — PubChem BioAssay (Tox21)
